We go through 2 molecules from PMC9692854.

These are yes or no findings as the source states them, for the method shown.

Assay [1] deals with T1, Beauveria bassiana photolyase Phr1 (B. bassiana) (UniProt J4KQS2).
T1 sequence: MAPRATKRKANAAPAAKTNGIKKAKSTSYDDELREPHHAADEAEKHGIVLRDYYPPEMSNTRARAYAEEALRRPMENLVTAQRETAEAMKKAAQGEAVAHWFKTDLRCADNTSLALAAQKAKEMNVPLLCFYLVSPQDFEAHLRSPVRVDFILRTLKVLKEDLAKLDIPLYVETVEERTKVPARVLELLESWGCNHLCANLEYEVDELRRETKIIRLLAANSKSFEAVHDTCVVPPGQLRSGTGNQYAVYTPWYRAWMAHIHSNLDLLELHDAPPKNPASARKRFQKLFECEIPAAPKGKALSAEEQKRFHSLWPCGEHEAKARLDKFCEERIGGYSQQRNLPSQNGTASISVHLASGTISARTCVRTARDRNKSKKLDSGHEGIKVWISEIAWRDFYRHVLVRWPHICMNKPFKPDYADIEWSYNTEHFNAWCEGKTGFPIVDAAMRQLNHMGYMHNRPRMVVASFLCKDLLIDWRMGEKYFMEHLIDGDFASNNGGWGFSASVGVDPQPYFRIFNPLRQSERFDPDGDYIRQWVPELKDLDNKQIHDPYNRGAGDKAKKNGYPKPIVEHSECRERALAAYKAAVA
Kind of assay: two-hybrid; ORFs in pGADT7 (AD, prey; strain Y187) or pGBKT7 (BD, bait; strain Y2HGold), pairwise mating; diploids grown 3 days at 30 °C on double-dropout (SDM/-Leu/-Trp/X-α-Gal/AbA) and quadruple-dropout (SDM/-Leu/-Trp/-Ade-His/X-α-Gal/AbA) medium; growth on quadruple dropout read as interaction.

The target in assay [2] is T2, Beauveria bassiana photolyase Phr2 (B. bassiana) (UniProt J4WK53).
T2 sequence: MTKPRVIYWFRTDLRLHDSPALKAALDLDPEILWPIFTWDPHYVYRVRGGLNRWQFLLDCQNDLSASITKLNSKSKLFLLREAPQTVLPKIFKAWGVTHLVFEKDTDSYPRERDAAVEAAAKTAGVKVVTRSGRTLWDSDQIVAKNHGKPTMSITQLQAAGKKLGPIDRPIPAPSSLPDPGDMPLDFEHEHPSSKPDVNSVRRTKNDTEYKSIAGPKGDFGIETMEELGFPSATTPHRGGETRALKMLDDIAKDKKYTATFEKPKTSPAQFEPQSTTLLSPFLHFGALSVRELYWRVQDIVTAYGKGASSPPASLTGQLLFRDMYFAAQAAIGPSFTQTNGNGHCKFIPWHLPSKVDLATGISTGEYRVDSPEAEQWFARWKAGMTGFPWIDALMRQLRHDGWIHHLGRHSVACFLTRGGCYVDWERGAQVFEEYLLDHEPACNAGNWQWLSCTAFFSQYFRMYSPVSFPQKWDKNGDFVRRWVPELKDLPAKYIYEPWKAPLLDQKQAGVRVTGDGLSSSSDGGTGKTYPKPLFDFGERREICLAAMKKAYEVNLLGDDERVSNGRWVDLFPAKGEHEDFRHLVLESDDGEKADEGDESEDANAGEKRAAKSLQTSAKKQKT
Described as above.

B1: Beauveria bassiana white collar protein WC2 (protein, UniProt J5JYA0 1-499)
chain: MSQGHAPPPNGYSAYNDLNLAFLSDASAPQHMMMSSAVDDPGPYNANEGMRFTDAQLFGEFTSDLGMSGFGSADASLDSFNPDFALDAMLGNSHANSALDPPSNNIPGGGPSPVGGPPQPMQLTNPGTSTLNEFTKRRNWPAKIVEELRDWLHILDANGRLKFVSRSVAEVAGYAEDDLRDIFLKDLIHPDDQGLFVAEFNESIASGNPLRIFYRLKKKDGVYGIFEAVGHAHIAAAKFAPNPSNQSPFCQAVFMVARPYPTRNAALLDSFLEHKIENERLKRRIAELQREEQADAHDACQQLSQDMSQSAATVSNMTFSDLTGSSATAQHGFASADTTMAGTSDSLEFNGALTRENLEGAATAAHRDSLRDKMARFEGGSHVDTIEMLTGLRYMEGERSRGITTGNTSPALIKGDAGIAIPKDRDGRLGEKKKKIKVSEEYVCTDCGTLDSPEWRKGPSGPKTLCNACGLRWAKKEKKRTKLAGASQPTPPTEFGAGS
As to B1, the binding entry in assay [1] and in assay [2] was “no binding” in each case.

B2: Beauveria bassiana white collar protein WC1 (protein, UniProt J5J1K4 1-963)
chain: MEGYYPPNHLPPREQQRQQQNNPNQQQQQQQQQQQQQQMPPGMPRSNTFNNQMMGNPTLLQRRASASIGFAPQQLSDAVDARRLSLAADRVAMNPPPATGSSNFMGFQPSPQQLNNFSMLDASNMGNIIADGNSFPGISPDAMGNLVSAQFANINMGAMFSNADPGSSAVLEGQISPNAMQLSITSNETMQFNNGTQYNAFTNPQDNTVPAPQQMNQAKTAQDPSHDARTGASAPAVDQAIQSLPRHELSAGSAVSPAQEMAPSTGATQPSTSSVATTPNATANLKEPREKSIYSKSGFDMLKALWLVASRKNPKIHLGAVDMSCAFVVCDVSMNDCPIIYVSDNFQNLTGYSSHDIVGQNCRFLQAPDGKVEAGTKREFVDNGTVFNLKKMIQERQEVQQSLINYRKGGKPFLNLLTMIPIPWDTDEVRYFIGFQIDLVECPDAIAGSEFGGVAVNYKHSDIGQYIWTPPSSAFWEADNGQTLGVDDVSTILQQFNAKGIASDWHRQSWDKMLLENCDDVIQVLSLKGLFLYLSPACKRVLEYDAAELVGNSLSSICHPSDIVPVTRELKDATTGDQVNIVFRIRRKQSGYTWFESHGSLYVEQGKGRKCIILVGRKRPVFSISRRNIESNGGIGDSEMWTKLSTSGTFLYVSSNVRSLLDLQPESLVATSIQELMRKDSRPEFGRTLEKARRGKIVTCKHEVLNRRGQGLQAQTTLYPGDAIEGQKPSFLLAQTKLLKASSRTLAPATSTAGSNASRSVHGQISQPAGGGLGHGNQEEALASDDNIFDELRTTKCSSWQFELRQMEKVNRILAEELGGLLSSKKKRKRRKGVGNVIRDCANCHTRNTPEWRRGPSGQRDLCNSCGLRWAKQMGRVSPRNSVRNGDTQSGKSASPIHSSPMHKEVPASANTPDHQVKRSATTDVPATVDAISPPTTNQQATRAASAGTVMASIQEERETSLP
Take B2: the binding entry in assay [1] and in assay [2] was “no binding” each time.
